Laboratory results published in the supplement of paper PMC11417369.
The list shows a part of the results.

test system: PfAP2-HC AP2 domain (GST-tagged); test: gcPBM binding intensity (ln(normalized median fluorescence intensity)); higher = stronger DNA binding
Summary of the method: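 Binding intensity values are the highest Masliner-normalised natural-log median intensity among replicate spots of either probe orientation. The binding step lasted 1 h in 1× PBS with 1% milk, 0.2 mg/ml BSA, 0.5% salmon testes DNA and 0.03% Triton X-100, using GST-tagged P. falciparum DNA-binding domains expressed in E. coli on an Agilent 4 × 180k array of primer-extended double-stranded 36-bp intergenic genomic probes plus negative controls. Alexa488 anti-GST antibody and a 488 nm scan detected bound protein.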

Sequence	gcPBM binding intensity (ln)
TATATATTTTTATGCACACACAAAGAAAATTTTCCT [CACACA_site2863]	9.94
TGTATGTATTTGTGTAGTACGCATAAGTAATAAAAC [XGTACX_site6704]	9.8
AATTTATATTAAAATTGTACATTTCTTCTATAATAC [XGTACX_site8639]	9.59
AAATAAAAAAAATAAAAGCAATCATAATAAAAATCT [CACACA_negctrl_site161]	9.74
AATATATTTAATGAGTGTACATTATTTATTATTATT [XGTACX_site6889]	9.75
ATACTTTTAATATGCACATGCAAATATGAAATATCG [TGCATGCA_site603]	9.51
TTTGGCTAGTCAAGTTGTACAAAAAAAAAAAAAAAA [XGTACX_site8382]	9.27
TACCAAAAGAAACACACACACAAAATATATAAATAT [CACACA_site1869]	10.6
TCCCATATATATATATATATATATATATATAATAAT [TGCATGCA_negctrl_site41]	9.58
TTATATGTATTTCTTTGTACACATTTTTATATATAT [XGTACX_site1462]	9.88
TAAATTTTATAAATCTGTACATATGAGCAAGAACAT [XGTACX_site7400]	9.65
TATCATTTTTTTAAAACACACATAATAATATAAATA [CACACA_site2845]	9.47
ATTATGCACCAACACACACACACACCCCTAAAAAAT [CACACA_site2568]	10.8
CACTTCAAAAAAATATGTACACATATATATATATAT [XGTACX_site3075]	9.77
GGTAATAAACAATGAAGTACGTAAAGGTAAAATATT [XGTACX_site2647]	10.3
TTATTAGGTATATATGCACACAATACCCAAAACAAC [CACACA_site4221]	9.82
TAATAATCAAACTATACACACATAAATAGATATATA [CACACA_site6220]	9.98
ATTTAATTTTCATGATGTACTATAGTTTAATGCACA [XGTACX_site1624]	9.74
TGTAAATATAAATGTAATAAATATGTAAAAATAAAT [XGTACX_negctrl_site171]	9.6
TATTTTCAAAAATATACACACACATAAATATATGTA [CACACA_site8160]	10.2
CACAGATAAATTAACACACACACACGGATATTTATA [CACACA_site7788]	10.8
TTCCTTCAAAATTTAAGTAATAAGATAAAAATATAA [CACACA_negctrl_site1696]	9.26

Sequence	gcPBM binding intensity (ln)
ATGTATACAAATATATGTACGTATGTTCTCTTCTTT [XGTACX_site7865]	9.82
TAAAGAGTTACCATTTGTACTTACGCACACATAAAA [XGTACX_site3145]	9.85
TTTTTATGTTATCAAATAAATATAAATATAATTCAT [CACACA_negctrl_site1522]	9.32
TATATTTGAAATATATGTACTTATAATACAGTTTAA [XGTACX_site8039]	9.46
ATATATAAATTTAATACACACCCAAAAAAAAAAAAA [CACACA_site7719]	9.82
GAATGAATACGTTTTACACACTTGAATATAATTTCA [CACACA_site989]	9.67
TAAATATATAAACACACACACATTAATACAGATATT [CACACA_site5851]	10.4
AAAATTATAAAATGGGCACACATGAAGATTGTAGTA [CACACA_site2226]	9.98
TATTAATACAGACACACACACACACTAATTAAAATA [CACACA_site7967]	10.7
ATTTACCCTTGCCATGCACACTTTTTTATAGAAAAT [CACACA_site5857]	10
AATATATAATTAATTGCACACCTTGTCACGCCAAAA [CACACA_site1174]	9.64
ATCTATATTTTTATAACACACAATGATGTACATTAC [CACACA_site6633]	9.9
TGAAAATATTTTATATGTACATATATTATCAATACA [XGTACX_site92]	9.58
TAGAATAATCTATAAACACACAAACCCAACAAAAGA [CACACA_site6132]	10.6
TTATTTATTTTTTCATGTACTTAAATATATTAATGT [XGTACX_site5804]	9.67
AAATATTAAATGGAAAACAAATATATATATCTTAAT [XGTACX_negctrl_site383]	9.66
ATATATTGAACCTATGCATGTAAAATATATGTAATA [TGCATGCA_site644]	9.69
TGTGTGGATATATGTATGCACTACCCTTTGGGTCAT [GTGCAC_site9506]	9.67
TGTAAGTATTCTTGAGGTACACATATAAATATAGTA [XGTACX_site3207]	9.57
AATATTATATAATAAAGTACATATATATTCATATTT [XGTACX_site7204]	9.64
ATATATATATATAGGAGTACATGAAATACTTAAAAA [XGTACX_site8851]	9.76
AAAAAAGAAATAATCAAATAAATAAAAAAGATGAAT [XGTACX_negctrl_site607]	9.78

Sequence	gcPBM binding intensity (ln)
GTGTGAAGATATAAATGCATTTTTTTATACATTTTC [CACACA_negctrl_site117]	9.66
TATAAATACATCCTATACTTCTCTTTTACAGTTTTA [CACACA_negctrl_site1283]	9.62
GACATTAATTATTTGACACACGACTGGGTGGTGATT [CACACA_site306]	9.7
TTTTTTTTTTATACATGTACTTAAAAGTAGCACCTT [XGTACX_site1855]	9.54
TGATTCAATTTATGCACACTAAAAATTAATTATATT [CACACA_site271]	9.65
ATTATATATACAACAAGTACAAAAGAAAAATATTAT [XGTACX_site2914]	9.66
TTTGTAAAAGGTCATACACACATATTCAAAAGAAGT [CACACA_site2947]	10
AAAAAAAAAAAATACACACACACATATAAATATGTA [CACACA_site6900]	10.3
GTTTATATATGCTTATAATTTTCAATTGTTTTACAA [TGCATGCA_negctrl_site384]	9.6
ATATATATATATAATTGTACATTTTTAACCTTAACA [XGTACX_site7910]	9.54
TTTTATGTTTTTTTTATAAATATTAAAATTCTATAT [CACACA_negctrl_site1477]	9.43
ATATTGTTATATGTTTGTACATATTTTTTATATTTT [XGTACX_site6834]	9.86
AATGTTAAAAATGAAAGTACATGGAATTTATTATTT [XGTACX_site4095]	9.62
TCATGTTTTTAATATTGTACTCTCATTTTATATATC [XGTACX_site8412]	9.68
ATATTTACTCACGTCTTGCACTGAGCAAGCATTATA	9.67
AGCTATTAATTTATTACATGCAAGATTAAAAGACTA [TGCATGCA_site281]	9.49
GGTATTTATGGACGCGTGCACACACATATGAACAAA	9.98
TTTTGATTTTTTTATTGTACCCATAAACATATAATT [XGTACX_site5202]	9.66
TATTTTTGAAGTTGCACACACAAAAATAAAAAGTAT [CACACA_site418]	9.88
TACAAACAATTAAACAAACACACATATACATGTATA [CACACA_site2061]	9.95
ATTTTTTATGAAAACATAAAAAAATGAGATAACCAT [CACACA_negctrl_site894]	9.58
AAAAAAAAAAAAAAATCACACATTGGTTAAATATTA [CACACA_site5344]	9.52

Sequence	gcPBM binding intensity (ln)
CTATCAAATAATAGCAAACACACAAAAAATAAAAAA [CACACA_site4147]	9.93
ATTCATACATGCACACGTACATATTTAAATATAAAA [XGTACX_site8388]	9.7
TATTTATACATACGTACACACAAATATTAAAATATA [CACACA_site7004]	9.85
ATATATTATAAATGTAGTACCGTTACATAGTCATAG [XGTACX_site390]	9.79
CACACCACCAACAAAAGTACATACATATATATATAT [XGTACX_site5781]	9.82
TATATATTGCCCTTCACACACACACCCATATATATA [CACACA_site2493]	10.3
ACTACGAGTCGTAGAGTGCAGTCTGGAGAAAAGTAC [GTGCAC_site9769]	9.63
ATCAAGCACGAACACACACACACACGCACGCCCACA [CACACA_site6308]	11.4
ATTTTTTTTTTTTGTACATACCACATATACAAAACA [CACACA_negctrl_site1240]	9.68
TTTTTTTTTTTCTCCATACACACTTGATAAAACTTT [CACACA_site615]	9.57
TAATTGATTCTTCACCGTACTCACACATATATATAT [XGTACX_site6530]	9.89
ATACATATATGTGTGTGTACATAAATGTATATATTT [XGTACX_site6242]	10.3
GCATGGAACCATATATGTACATATATAAATAAATAA [XGTACX_site4996]	9.66
GTATCTTTCAAAATATGTACATATATATATGTGTGT [XGTACX_site3512]	10.1
AACTTTATTCCTAATTGTACACATATATATATATAT [XGTACX_site6823]	10
AATAGTAAAAGATATACACACACCAAAAAATAGAAT [CACACA_site2289]	11.6
ATTATACATATGTATGCACACATACATACACATATA [CACACA_site9155]	9.96
ATATATATATGTTTATGTACTTATAATAATATAACT [XGTACX_site4828]	9.62
TAATTTAAGAAAAAATGTACACAAATATAATAATAG [XGTACX_site8317]	9.67
AAAAAAAATATCTATGCATGTAATATTATGATATTG [TGCATGCA_site546]	9.58
TAACATTAAAATAAAAGTACTTAATAATATTAAGTA [XGTACX_site5920]	9.64
TTAATAATAAATGAAAGTACATATAAAAAAAAAAAA [XGTACX_site717]	9.61
